# Experimental data as given in publication PMC4336329 (PLoS ONE, 2015).
# Screen size: about 310,000 compounds; about 14,000 (4.5%) showed an effect of 50% or more. The effect is printed as a negative number. Some of the results follow.
# Target: human ether-à-go-go-related gene (hERG) potassium channel (human, UniProt Q12809)
# Assay: primary screen, population patch clamp on CHO cells stably expressing hERG
# 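Also: peak tail current of the secondary pulse compared with the same well before compound.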
# human ether-à-go-go-related gene (hERG) potassium channel, sequence (Q12809 whole entry, looked up): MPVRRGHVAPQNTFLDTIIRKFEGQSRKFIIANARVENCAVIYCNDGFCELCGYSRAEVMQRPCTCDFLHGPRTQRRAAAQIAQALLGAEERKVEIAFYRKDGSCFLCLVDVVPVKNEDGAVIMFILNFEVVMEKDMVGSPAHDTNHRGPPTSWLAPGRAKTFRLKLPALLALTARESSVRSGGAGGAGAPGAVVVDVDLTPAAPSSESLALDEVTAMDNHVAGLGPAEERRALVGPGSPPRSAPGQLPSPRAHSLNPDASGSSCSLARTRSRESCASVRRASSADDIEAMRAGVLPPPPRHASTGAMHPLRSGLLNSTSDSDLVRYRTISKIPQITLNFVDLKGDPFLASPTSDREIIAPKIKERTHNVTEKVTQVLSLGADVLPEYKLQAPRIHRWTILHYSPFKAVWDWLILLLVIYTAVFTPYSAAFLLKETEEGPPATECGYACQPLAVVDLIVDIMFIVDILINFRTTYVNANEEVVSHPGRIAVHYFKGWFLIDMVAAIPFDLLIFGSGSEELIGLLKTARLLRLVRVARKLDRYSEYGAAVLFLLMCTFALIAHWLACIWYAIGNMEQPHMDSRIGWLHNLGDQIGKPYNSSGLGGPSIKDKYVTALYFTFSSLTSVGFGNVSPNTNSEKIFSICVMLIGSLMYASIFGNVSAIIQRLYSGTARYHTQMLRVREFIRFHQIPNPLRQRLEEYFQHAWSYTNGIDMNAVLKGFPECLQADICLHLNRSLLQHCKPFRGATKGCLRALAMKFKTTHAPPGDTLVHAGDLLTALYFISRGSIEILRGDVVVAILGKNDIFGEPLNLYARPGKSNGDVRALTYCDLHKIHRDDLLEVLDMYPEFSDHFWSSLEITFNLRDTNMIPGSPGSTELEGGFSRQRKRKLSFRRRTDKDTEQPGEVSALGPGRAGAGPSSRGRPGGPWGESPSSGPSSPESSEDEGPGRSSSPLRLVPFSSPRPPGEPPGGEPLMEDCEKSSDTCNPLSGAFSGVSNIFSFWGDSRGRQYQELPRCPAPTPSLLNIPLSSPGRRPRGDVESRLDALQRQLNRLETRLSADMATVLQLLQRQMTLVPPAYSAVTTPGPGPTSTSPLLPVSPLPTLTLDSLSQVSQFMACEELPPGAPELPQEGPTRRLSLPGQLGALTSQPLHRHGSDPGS
row,Structure (SMILES),"hERG current change (%, negative = inhibition) at 10uM [%]"
1,O=C(C1CCN(C2CCN(Cc3ccc4cc(F)ccc4n3)CC2)CC1)N1CCCC1,-77.3
2,COc1cccc(OCC(O)CN(CCO)Cc2ccccc2)c1.Cl (stereo not shown),-13.4
3,COC(=O)c1ccc(CNC(=O)COC(=O)c2cc(Cl)nc(Cl)c2)cc1,8.69
4,COC(=O)C1(C)NC(c2ccc(C)cc2)C2C(=O)N(c3ccc(F)cc3)C(=O)C21 (stereo not shown),-2.85
5,Clc1ccc2oc(-c3cccnc3)nc2c1,-14.9
6,Cc1ccc(/C=N/NC(=O)c2nnn(-c3nonc3N)c2CN(C)C2CCCCC2)cc1,3.23
7,Cc1occc1-c1nnc(SCC(=O)NCCc2ccccc2)o1,-11.5
8,COC(=O)Nc1c(-c2ccccc2)nc2ccc(Cl)cn12,5.95
9,O=C(Cc1ccsc1)NCc1ccccc1F,17.1
10,COc1ccc(C(=O)Nc2ccc3[nH]c(-c4cccc(OC)c4)cc(=O)c3c2)cc1,2.65
11,CC1(C)CC(=O)C2=C(C1)OC(N)=C(C#N)C21CCN(C(=O)OCc2ccccc2)CC1,-2.49
12,Cn1c(N2CCC(C(N)=O)CC2)nc2c1c(=O)n(Cc1ccc(Br)cc1)c(=O)n2C,-57.3
13,Cc1cc(C)c(OCCOCCN(C)C)c(Br)c1.O=C(O)C(=O)O,-32.2
14,O=C(c1sc2ccccc2c1Cl)N1CCN(c2ccccc2F)CC1,-1.51
15,COc1ccc(N(CC(=O)NC2CCCC2)C(=O)CCC(=O)Nc2nc(C)cs2)cc1OC,-42
16,CCCCn1c(Cc2ccccc2)n[nH]c1=S,7.27
17,Cc1ccc(S(=O)(=O)N2CCN(c3ccccc3)CC2)c(C)c1,12.9
18,Cc1ccc(-n2nc3c(N4CCC(C(=O)NCc5ccccc5C)CC4)nnc(C)c3c2C)cc1,-15.6
19,CCOC(=O)C1(Cc2ccc(OC)cc2)CCN(C(=O)CCc2cnccn2)CC1,-7.37
20,COc1cccc(OC)c1C(=O)NC(=S)Nc1ccc2c(c1)OCCO2,13.7
21,CCCC(=O)Nc1sc2c(c1C(=O)OCC)CC(C)(C)OC2,-0.959
22,O=C(NC(=S)Nc1nc2ccccc2s1)c1cccs1,17.5

row,Structure (SMILES),"hERG current change (%, negative = inhibition) at 10uM [%]"
1,C=C(C=O)CC1CC(O)[C@]2(C)OC3C[C@@H]4OC5C[C@]6(C)O[C@]7(C)CCC8OC9C[C@]%10(C)OC(/C(C)=C\CO)C(O)CC%10OC9CC(C)C8OC7CC6O[C@]5(C)C/C=C\C4OC3CC2O1 (stereo partly shown),5.79
2,CCN(CC)S(=O)(=O)c1ccc(/C=C/C(=O)Nc2ccc(F)cc2F)cc1,-2.24
3,COC1Cc2ccccc2N(C(=O)N2CCN(CCO)CC2)c2ccccc21.Cl (stereo not shown),-16.4
4,O=C(COC(=O)CNC(=O)c1cccc([N+](=O)[O-])c1)Nc1cccc(S(=O)(=O)N2CCCCC2)c1,-30.8
5,O=C(O)c1ccc(NC(=O)c2cn(-c3ccccc3)nc2-c2ccc(Cl)cc2)cc1,27.6
6,O=C(Nc1ccc(-c2nc3ncccc3o2)cc1)c1ccc(Br)o1,2.5
7,CCN1CCCC(NC(=O)c2scc3c2CCCC3)C1 (stereo not shown),5.25
8,CCn1cc(C(=O)NCc2ccccc2OC)c(=O)c2ccc(C)nc21,17.6
9,CCOc1ccc(NC(=O)c2cccc(-n3cnnn3)c2)cc1,11.2
10,Cc1ccc(NC(=O)C[n+]2cc(-c3ccc(C)cc3)n3c2CCC3)cc1.[Cl-],-70
11,Cc1ccc2oc(=O)cc(CN3CC(C)OC(C)C3)c2c1 (stereo not shown),15.3
12,O=C1N(c2ccccc2C(F)(F)F)O[C@@]1(c1ccccc1)C1CCCCC1,4.29
13,O=c1cc(C(F)(F)F)[nH]c2c(OC(F)(F)F)cccc12,3.02
14,O=C(N1CCOCC1)N1CCN(S(=O)(=O)c2ccc(Cl)cc2)CC1,-2.23
15,Cc1ccc(OCC(O)CNS(=O)(=O)c2ccccc2C(=O)N2CCCCC2)cc1 (stereo not shown),-13.9
16,O=C(CSc1ncnc2c1oc1ccccc12)Nc1ccc2c(c1)OCCO2,1.27
17,CCOC(=O)C1CCC(CN(Cc2ccccc2C)S(=O)(=O)c2ccc([N+](=O)[O-])cc2)CC1 (stereo not shown),16.8
18,Cn1c(COc2ccc([N+](=O)[O-])cc2)nnc1SCC(N)=O,1.54
19,COc1ccc(CN2CCC(=O)N([C@H](CO)CC(C)C)CC2)cc1,-2.62
20,CCn1cc(C(=O)NCC2COc3ccccc3O2)c2cc(OC)c(OC)cc2c1=O (stereo not shown),-1.71
21,O=C(Nc1cccnc1)C1CCCN1S(=O)(=O)c1ccc(Cl)c(Cl)c1 (stereo not shown),-49.3
22,COc1ccc(C(=O)/C=C/Nc2ccc(S(=O)(=O)Nc3cc(OC)nc(OC)n3)cc2)c(OC)c1,19.4

row,Structure (SMILES),"hERG current change (%, negative = inhibition) at 10uM [%]"
1,CC(=O)CC1(O)C(=O)N(Cc2ccccc2)c2ccccc21 (stereo not shown),-1.7
2,COc1ccccc1CNC(=O)COc1cccnc1[N+](=O)[O-],-43.6
3,CC1(C)NC(C(=O)O)Cc2c1[nH]c1ccccc21 (stereo not shown),3.65
4,COc1cccc(-c2nn3c(-c4cccc(C)c4)nnc3s2)c1,17.5
5,Cn1cnnc1SCC(=O)NC1CCCN(Cc2ccccc2F)C1 (stereo not shown),19.7
6,O=C(C1CCCN(S(=O)(=O)c2ccccc2)C1)N1CCN(c2ccccc2)CC1 (stereo not shown),-54.8
7,COc1ccc(CNC(=O)Cn2nc(Cc3cccnc3)c3ccccc3c2=O)cc1,-43.3
8,Cc1ccnc(NC(=O)c2cnc(Cl)c(Cl)c2)c1,22.2
9,Cc1c(Nc2cc(N3CCOCC3)c3nonc3c2[N+](=O)[O-])c(=O)n(-c2ccccc2)n1C,14.8
10,Cc1cc(NS(=O)(=O)c2ccc(NC(=O)CSc3nc4ncccc4[nH]3)cc2)nc(C)n1,9.89
11,Cc1ccc(CNC(=O)C(OC(=O)c2ccco2)C(C)C)cc1 (stereo not shown),-12.6
12,O=C(/C=C/c1ccccc1)OCCCCN=C1NS(=O)(=O)c2ccccc21,5.03
13,O=C(N/N=C1\CC2CC=CC12)c1ccc(COc2ccccc2)cc1 (stereo not shown),-6.88
14,CC(=O)N1CCc2c(sc(NC(=O)CS(=O)(=O)c3ccc(F)cc3)c2C(N)=O)C1,15.7
15,Cc1ccc(N)cc1-n1c(C)ccc1C,0.787
16,CC(=O)N1CCc2cc(S(=O)(=O)CCC(=O)NCCc3ccc(C)cc3)ccc21,-1.9
17,Cc1ccc(C)c(N2C(=O)C3C4C=CC(CC4)C3C2=O)c1 (stereo not shown),11.5
18,COc1ccc(CNc2nc(C)cc(C)c2C#N)cc1,17
19,CN(C)Cc1c(C(=O)N/N=C/C=C/c2ccccc2)nnn1-c1nonc1N,-24.9
20,c1cncc(-c2nc(-c3cccs3)cs2)c1,-21.1
21,O=C(c1ccco1)N1CCCSC1=Nc1ccccc1,12
22,COc1ccc(NC(=O)CSCc2cc(=O)n3cc(C)sc3n2)cc1,10

row,Structure (SMILES),"hERG current change (%, negative = inhibition) at 10uM [%]"
1,O=C(COc1ccccc1)NCC(=O)N/N=C/c1ccc(O)cc1O,-15.5
2,O=C(CCCOc1ccc(Cl)cc1Cl)Nc1ccc(O)cc1C(=O)O,13.8
3,Cn1c(SCc2cccc([N+](=O)[O-])c2)nc2ccccc2c1=O,7.88
4,CC(C)c1cc(NCCCN2CCOCC2)n2c(nc3ccccc32)c1C#N,-79.9
5,CC(C)N(C(=O)COC(=O)[C@H](C)NC(N)=O)c1ccccc1,9.03
6,CCN(CC)CCn1c(SCC(=O)Nc2cccc(OC)c2)nc2c(sc3ccccc32)c1=O,-69.2
7,C=CCn1c(C)cc(C(=O)Cn2nc(C(=O)O)c3ccccc3c2=O)c1C,-8.69
8,CCNC(=O)COc1ccc(OCc2ccccc2)cc1,-23.4
9,COc1ccccc1NC(=O)CCSc1nnc(-c2ccc(O)cc2)o1,-4.08
10,CCN(CC)C(=O)CSc1nc2c(sc(=S)n2-c2ccccc2OC)c(=O)n1-c1ccccc1,-4.22
11,C(=C\c1ccncc1)/c1ccccc1,-10.6
12,Cc1ccccc1NC(=O)c1ccc(CN2CC(=O)N3CCCCC3C2=O)cc1 (stereo not shown),-0.861
13,CCOC(=O)c1ccc(NC(=O)COc2ccc(-n3cnnn3)cc2)cc1,-19.8
14,CCC(OC(=O)c1nsc(Cl)c1Cl)C(=O)NCCc1ccccc1 (stereo not shown),16
15,O=C(Cc1n[nH]c(=O)c2ccccc12)OCC(=O)c1ccccc1,10.1
16,C#Cc1ccc([C@H]2C=C(C(=O)NCc3ccccc3)O[C@@H](OCc3ccc(CO)cc3)C2)cc1,10.5
17,CC(C(=O)N1CCOCC1)N1C(=O)c2cccc3cccc(c23)C1=O (stereo not shown),16.6
18,CCC1(CC)Cc2ccccc2C2=C(C(=O)N3CCCCC3)C(=O)C(=O)N21,2.82
19,CCCN(CC(=O)Nc1ccccc1C)C(=O)C1CC(=O)N(c2ccccc2C(C)CC)C1 (stereo not shown),3.95
